We go through 58 compounds from the supplement of paper PMC9135407.

This assay deals with primary human hepatic stellate cells (donor 1). Description: scaled lipid accumulation score (0 = DMSO-like, 1 = nortriptyline-like); higher = stronger HSC inactivation (lipid re-accumulation), active = hit call of the paper. The settings on record: 48 h.
Setting [1] is: library stock concentration: 10 mM.
The mark [2] stands for this setting: library stock concentration: 1 mM.
[3] abbreviates: library stock concentration: 3.33 mM.
[4] abbreviates: library stock concentration: 400 uM.
The mark [5] stands for this setting: library stock concentration: 2 mM.
Setting [6] is: library stock concentration: 80 uM.

“And” between values parts separate entries of the source, which are not always exact repeats. Identical values can stand only once. Counter-ions that a name gives are not always drawn. The campaign covered roughly 5,800 compounds. About 620 (11%) showed activity.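 Rule for the calls: active = score above a cut-off or among the top three wells of a plate; in these data no inactive exceeds 0.85.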 Only a part is listed here, and it is no random draw. A value given as a limit tells only on which side of the number the result lay.

As to `CC(C(=O)O)c1ccc(CC2CCCC2=O)cc1` (stereo not drawn), under setting [1], the “scaled lipid accumulation score” value is inactive: ≤ 0.

As to `CC(C(=O)O)c1ccc(CC2CCCC2=O)cc1` (stereo not drawn) [loxoprofen], the “scaled lipid accumulation score” value under setting [1] was inactive: 0.127.

With `COC(=O)CCCCCCC1C(O)CC(O)C1CCC(O)C#Cc1ccccc1F` (stereo not drawn), the “scaled lipid accumulation score” value under setting [2] was inactive: ≤ 0.

On to `CC[C@H]1OC(=O)[C@H](C)[C@@H](O[C@H]2C[C@@](C)(OC)[C@@H](O)[C@H](C)O2)[C@H](C)[C@@H](O[C@@H]2O[C@H](C)C[C@H](N(C)C)[C@H]2O)[C@](C)(O)C[C@@H](C)C(=O)[C@H](C)[C@@H](O)[C@]1(C)O` [Erythromycin], for which the “scaled lipid accumulation score” value is inactive: 0.066. Under setting [3], the “scaled lipid accumulation score” value was inactive: 0.027. Further, under setting [1], the “scaled lipid accumulation score” value is inactive: ≤ 0.

As to `CC[C@H]1OC(=O)[C@H](C)[C@@H](O[C@H]2C[C@@](C)(OC)[C@@H](O)[C@H](C)O2)[C@H](C)[C@@H](O[C@@H]2O[C@H](C)C[C@H](N(C)C)[C@H]2O)[C@](C)(O)C[C@@H](C)C(=O)[C@H](C)[C@@H](O)[C@]1(C)O`, the “scaled lipid accumulation score” value under setting [1] is inactive: 0.396.

Regarding `O=S(=O)(c1cccc2c(Cl)cccc12)N1CCCNCC1`, the “scaled lipid accumulation score” value under setting [1] is active: 1.02.

Consider `CC1=C(/C=C/C(C)=C/C=C/C(C)=C/C=C/C=C(C)/C=C/C=C(C)/C=C/C2=C(C)CCCC2(C)C)C(C)(C)CCC1` [Beta Carotene], for which the “scaled lipid accumulation score” value under setting [3] was inactive: ≤ 0 and the “scaled lipid accumulation score” value under setting [1] is inactive: ≤ 0.

Take `CCCCCCCCCCCCCC(=O)N[C@H](C)[C@@H](O)c1ccccc1` [D-erythro-MAPP]: the “scaled lipid accumulation score” value under setting [2] was inactive: ≤ 0 and inactive: 0.048.

For `c1ccc(CC2=NCCN2)cc1` [Priscoline], the “scaled lipid accumulation score” value under setting [1] is inactive: 0.013.

For the compound `c1ccc(CC2=NCCN2)cc1` [Tolazoline hydrochloride], the “scaled lipid accumulation score” value was inactive: ≤ 0. For the same compound, the “scaled lipid accumulation score” value under setting [1] is inactive: ≤ 0.

In the case of `c1ccc(CC2=NCCN2)cc1` [Tolazoline HCl], the “scaled lipid accumulation score” value is inactive: ≤ 0 under setting [3] and inactive: ≤ -0.001 under setting [1].

On to `NCCCCC(=O)O` [5-Aminovaleric acid hydrochloride], for which the “scaled lipid accumulation score” value under setting [1] was inactive: ≤ 0.

As for `NCCCCC(=O)O` [5-aminopentanoic acid hydrochloride], the “scaled lipid accumulation score” value under setting [1] was inactive: ≤ 0.

With `CC(C)(Oc1ccc(CCNC(=O)c2ccc(Cl)cc2)cc1)C(=O)O` [bezafibrate], the “scaled lipid accumulation score” value (library stock concentration: 13.8 mM) is inactive: ≤ -0.021.

For the compound `CC(C)(Oc1ccc(CCNC(=O)c2ccc(Cl)cc2)cc1)C(=O)O` [Bezafibrate], the “scaled lipid accumulation score” value was inactive: ≤ 0. Moreover, the “scaled lipid accumulation score” value under setting [2] is inactive: ≤ 0. For the same compound, the “scaled lipid accumulation score” value under setting [3] was inactive: ≤ 0. For the same compound, the “scaled lipid accumulation score” value under setting [1] is inactive: ≤ -0.001 and inactive: 0.041 and inactive: ≤ 0.

As to `OCCN1CCN(CCCN2c3ccccc3Sc3ccc(C(F)(F)F)cc32)CC1`, the “scaled lipid accumulation score” value under setting [1] is active: 1.34.

As to `OCCN1CCN(CCCN2c3ccccc3Sc3ccc(C(F)(F)F)cc32)CC1` [Fluphenazine hydrochloride], the “scaled lipid accumulation score” value under setting [1] is inactive: 0.407.

`OCCN1CCN(CCCN2c3ccccc3Sc3ccc(C(F)(F)F)cc32)CC1` [Fluphenazine dihydrochloride]: the “scaled lipid accumulation score” value was inactive: 0.627. The “scaled lipid accumulation score” value under setting [1] was inactive: ≤ -0.07.

In the case of `COc1cc2c(Nc3ccc(Br)cc3F)ncnc2cc1OCC1CCN(C)CC1` [Vandetanib  (ZD6474, Zactima) (0.4 mM)], under setting [4], the “scaled lipid accumulation score” value is active: 1.1.

For `COc1cc2c(Nc3ccc(Br)cc3F)ncnc2cc1OCC1CCN(C)CC1` [Vandetanib  (ZD6474, Zactima) (2 mM)], under setting [5], the “scaled lipid accumulation score” value is active: 0.855.

With `O=C(c1cc(Cc2n[nH]c(=O)c3ccccc23)ccc1F)N1CCN(C(=O)C2CC2)CC1` [Olaparib], the “scaled lipid accumulation score” value was inactive: ≤ -0.0005 under setting [6], inactive: ≤ -0.0045 under setting [4], inactive: ≤ -0.0045 under setting [5] and inactive: ≤ -0.0045 under setting [1].

For `O=C(c1cc(Cc2n[nH]c(=O)c3ccccc23)ccc1F)N1CCN(C(=O)C2CC2)CC1`, the “scaled lipid accumulation score” value is inactive: ≤ 0 under setting [3] and inactive: ≤ 0 under setting [1].

On to `O=C(O)CCCc1c[nH]c2ccccc12` [3-Indolebutyric acid (IBA)], for which the “scaled lipid accumulation score” value was inactive: 0.014 under setting [3] and inactive: ≤ 0 under setting [1].

With `O=C1c2ccccc2C(=O)C1c1ccccc1` [Phenindione], the “scaled lipid accumulation score” value was inactive: ≤ 0. Further, the “scaled lipid accumulation score” value under setting [3] is inactive: ≤ 0. The “scaled lipid accumulation score” value (library stock concentration: 9 mM) is inactive: 0.014. Also, the “scaled lipid accumulation score” value under setting [1] is inactive: ≤ 0.

As to `Clc1ccc2c(c1)C(N1CCNCC1)=Nc1ccccc1O2`, the “scaled lipid accumulation score” value under setting [1] was inactive: 0.843.

As for `Clc1ccc2c(c1)C(N1CCNCC1)=Nc1ccccc1O2` [Amoxapine], the “scaled lipid accumulation score” value (library stock concentration: 6.4 mM) is inactive: 0.598.

Take `Cc1cc(C=C2C(=O)C=CC2=O)cc(C)c1O`: the “scaled lipid accumulation score” value is inactive: ≤ -0.001 under setting [6], inactive: ≤ -0.001 under setting [4], inactive: 0.593 under setting [5] and inactive: 0.464 under setting [3].

With `O=C(O)CCc1nc(-c2ccccc2)c(-c2ccccc2)o1`, under setting [1], the “scaled lipid accumulation score” value is inactive: ≤ 0.

Take `O=C(O)CCc1nc(-c2ccccc2)c(-c2ccccc2)o1` [Oxaprozin]: the “scaled lipid accumulation score” value is inactive: ≤ 0. Further, the “scaled lipid accumulation score” value under setting [3] is inactive: ≤ 0. Besides, the “scaled lipid accumulation score” value (library stock concentration: 6.8 mM) is inactive: ≤ 0. The “scaled lipid accumulation score” value under setting [1] is inactive: ≤ -0.001 and inactive: 0.148 and inactive: 0.147.

With `CC1(C)CC(=O)c2c(ccc(C(=O)CC(N)CO)c2N)O1` (stereo not drawn), under setting [1], the “scaled lipid accumulation score” value is active: 1.03.

As for `COc1c(C)cnc(Cn2cnc3c(Cl)nc(N)nc32)c1C`, under setting [3], the “scaled lipid accumulation score” value is active: 0.885.

Turning to `CNC[C@@H](O)c1ccc(O)c(O)c1` [L-Adrenaline], the “scaled lipid accumulation score” value is, setting by setting: under setting [3], inactive: 0.029; under setting [1], inactive: ≤ 0.

Regarding `Cc1ccc(N(CC2=NCCN2)c2cccc(O)c2)cc1` [Phentolamine Mesylate], the “scaled lipid accumulation score” value was inactive: 0.03 under setting [3] and inactive: 0.159 under setting [1].

Consider `Cc1ccc(N(CC2=NCCN2)c2cccc(O)c2)cc1` [PhentolamineHCl], for which the “scaled lipid accumulation score” value (library stock concentration: 7.1 mM) is inactive: 0.024.

Turning to `Cc1ccc(N(CC2=NCCN2)c2cccc(O)c2)cc1` [Phentolamine?Mono-hydrochloride], under setting [1], the “scaled lipid accumulation score” value was inactive: 0.482.

For the compound `Cc1ccc(N(CC2=NCCN2)c2cccc(O)c2)cc1` [Phentolamine hydrochloride], the “scaled lipid accumulation score” value is inactive: 0.051. Further, the “scaled lipid accumulation score” value (library stock concentration: 6.3 mM) was inactive: 0.079. Under setting [1], the “scaled lipid accumulation score” value is inactive: ≤ 0.

For `Cc1ccc(N(CC2=NCCN2)c2cccc(O)c2)cc1` [Phentolamine mesylate], the “scaled lipid accumulation score” value under setting [1] is inactive: ≤ 0.

Regarding `Cc1ccc(N(CC2=NCCN2)c2cccc(O)c2)cc1` [Phentolamine], the “scaled lipid accumulation score” value (library stock concentration: 17.8 mM) is inactive: 0.3.

In the case of `CN(C)C/C=C/C(=O)Nc1cc2c(Nc3ccc(F)c(Cl)c3)ncnc2cc1O[C@H]1CCOC1` [Afatinib  (TOVOK,  BIBW-2992) (2 mM)], the “scaled lipid accumulation score” value under setting [5] is active: 1.29.

For `CC(C)(C)c1ccc(/C=C/C(=O)Nc2ccc3c(c2)OCCO3)cc1`, the “scaled lipid accumulation score” value under setting [1] was inactive: 0.122 and inactive: 0.031.

As to `Cc1n[nH]c2ccc(-c3cncc(OC[C@@H](N)Cc4ccccc4)c3)cc12`, the “scaled lipid accumulation score” value under setting [3] is active: 1.24.

Take `Cc1[nH]c(/C=C2\C(=O)Nc3ccc(S(=O)(=O)N(C)c4cccc(Cl)c4)cc32)c(C)c1C(=O)N1CCN(C)CC1` [Met Kinase Inhibitor]: the “scaled lipid accumulation score” value under setting [3] is active: 1.38.

As for `O=C(O)c1ccccc1-c1c2cc(I)c(=O)c(I)c-2oc2c(I)c(O)c(I)cc12`, under setting [1], the “scaled lipid accumulation score” value is inactive: 0.008.

For `CCc1ccc(CCOc2ccc(CC3SC(=O)NC3=O)cc2)nc1` (stereo not drawn) [Pioglitazone], the “scaled lipid accumulation score” value was inactive: ≤ 0 under setting [3] and inactive: ≤ 0 under setting [1].

For `CCc1ccc(CCOc2ccc(CC3SC(=O)NC3=O)cc2)nc1` (stereo not drawn) [Pioglitazone hydrochloride], the “scaled lipid accumulation score” value (library stock concentration: 5.1 mM) is inactive: ≤ 0 and the “scaled lipid accumulation score” value under setting [1] is inactive: ≤ -0.027.

In the case of `CCc1ccc(CCOc2ccc(CC3SC(=O)NC3=O)cc2)nc1` (stereo not drawn) [Pioglitazone HCl], the “scaled lipid accumulation score” value is, setting by setting: under setting [3], inactive: ≤ 0; under setting [1], inactive: ≤ 0.

On to `CCc1ccc(CCOc2ccc(CC3SC(=O)NC3=O)cc2)nc1` (stereo not drawn), for which the “scaled lipid accumulation score” value under setting [1] is inactive: ≤ 0.

As to `CC[n+]1c(/C=C/C=C2/N(C)c3ccccc3C2(C)C)sc2ccccc21`, under setting [1], the “scaled lipid accumulation score” value is inactive: 0.767.

Regarding `Cc1c(Cl)cccc1Nc1ccccc1C(=O)O` [Tolfenamic Acid], the “scaled lipid accumulation score” value reads like this: under setting [3], inactive: ≤ 0; under setting [1], inactive: ≤ 0.

Consider `Cc1c(Cl)cccc1Nc1ccccc1C(=O)O` [Tolfenamic acid], for which the “scaled lipid accumulation score” value is inactive: ≤ 0. Also, where the note is “library stock concentration: 7.6 mM”, the “scaled lipid accumulation score” value is inactive: ≤ 0. For the same compound, the “scaled lipid accumulation score” value under setting [1] is inactive: ≤ 0.

Consider `CC(C)NCC(O)c1ccc(O)c(O)c1` (racemic) [Isoproterenol HCl (rac)], for which the “scaled lipid accumulation score” value (library stock concentration: 9.5 mM) was inactive: ≤ -0.006.

In the case of `COc1cc(F)c(C(C)C)cc1-c1ccc(C(F)(F)F)cc1CN1C(=O)O[C@H](c2cc(C(F)(F)F)cc(C(F)(F)F)c2)[C@@H]1C` [Anacetrapib (MK-0859)], the “scaled lipid accumulation score” value under setting [3] was inactive: ≤ 0 and the “scaled lipid accumulation score” value under setting [1] is inactive: ≤ 0.

As for `CO[C@H]1/C=C/O[C@@]2(C)Oc3c(C)c(O)c4c(O)c(c(/C=N/N5CCN(C)CC5)c(O)c4c3C2=O)NC(=O)/C(C)=C\C=C\[C@H](C)[C@H](O)[C@@H](C)[C@@H](O)[C@@H](C)[C@H](OC(C)=O)[C@@H]1C`, the “scaled lipid accumulation score” value under setting [1] was inactive: 0.008.

Consider `CO[C@H]1/C=C/O[C@@]2(C)Oc3c(C)c(O)c4c(O)c(c(/C=N/N5CCN(C)CC5)c(O)c4c3C2=O)NC(=O)/C(C)=C\C=C\[C@H](C)[C@H](O)[C@@H](C)[C@@H](O)[C@@H](C)[C@H](OC(C)=O)[C@@H]1C` [Rifampin], for which the “scaled lipid accumulation score” value is, setting by setting: under setting [3], inactive: ≤ 0; under setting [1], inactive: ≤ 0.

With `CO[C@H]1/C=C/O[C@@]2(C)Oc3c(C)c(O)c4c(O)c(c(/C=N/N5CCN(C)CC5)c(O)c4c3C2=O)NC(=O)/C(C)=C\C=C\[C@H](C)[C@H](O)[C@@H](C)[C@@H](O)[C@@H](C)[C@H](OC(C)=O)[C@@H]1C` [Rifampicin], the “scaled lipid accumulation score” value is inactive: ≤ 0.

For the compound `CNCCC=C1c2ccccc2CCc2ccccc21.Cl`, under setting [1], the “scaled lipid accumulation score” value is active: 1.02.

`CC(Oc1ccc(O)cc1)(P(=O)(O)O)P(=O)(O)O`: the “scaled lipid accumulation score” value under setting [1] was inactive: ≤ 0.

Turning to `CCC(C)[C@H](NC(=O)[C@H](CCCCN)NC(=O)[C@H](CCCCN)NC(=O)[C@H](C)NC(=O)[C@H](CC(C)C)NC(=O)[C@H](C)NC(=O)[C@H](C)NC(=O)[C@H](CC(C)C)NC(=O)[C@H](C)NC(=O)[C@H](CCCCN)NC(=O)[C@H](CC(C)C)NC(=O)[C@H](CC(N)=O)NC(=O)[C@@H](N)[C@@H](C)CC)C(=O)N[C@@H](CC(C)C)C(N)=O` (stereo partly drawn) [Mastoparan], under “library stock concentration: 3 mM”, the “scaled lipid accumulation score” value is inactive: ≤ -0.012.
